Measurements: patent US20100260668A1 (published 2010)

Legend:
[1] = target: T1, IGF1R (antigen of the capture ELISA table); assay: antigen capture ELISA, IGF1R; N-terminal VD
T1 construct: No IGF1R capture ELISA method is described; also called IGFR

[2] = target: T2, IGF1R; assay: flow cytometry on cells carrying the target, 2 ug/mL; N-terminal VD
T2 construct: whole, on cells; also called insulin-like growth factor receptor

| EC50 [1] | FACS Geometric Mean N-terminal [2] | Binder |
| --- | --- | --- |
| 0.2 nM |  | DVD032 (bispecific antibody, human IgG1, kappa, DVD-Ig; also called IGF1R / HER-2 DVD-Ig; DVD032H) heavy: EVQLLESGGGLVQPGGSLRLSCTASGFTFSSYAMNWVRQAPGKGLEWVSAISGSGGTTFYADSVKGRFTISRDNSRTTLYLQMNSLRAEDTAVYYCAKDLGWSDSYYYYYGMDVWGQGTTVTVSSASTKGP[omitted - about 450 residues with a human IgG1 Fc] light: DIQMTQFPSSLSASVGDRVTITCRASQGIRNDLGWYQQKPGKAPKRLIYAASRLHRGVPSRFSGSGSGTEFTLTISSLQPEDFATYYCLQHNSYPCSFGQGTKLEIKRTVAA[omitted - about 200 residues] |
|  | 34.6 | DVD032 (bispecific antibody, human IgG1, kappa, DVD-Ig; also called IGF1R and HER-2 DVD-Ig) heavy: EVQLLESGGGLVQPGGSLRLSCTASGFTFSSYAMNWVRQAPGKGLEWVSAISGSGGTTFYADSVKGRFTISRDNSRTTLYLQMNSLRAEDTAVYYCAKDLGWSDSYYYYYGMDVWGQGTTVTVSSASTKGP[omitted - about 450 residues with a human IgG1 Fc] light: DIQMTQFPSSLSASVGDRVTITCRASQGIRNDLGWYQQKPGKAPKRLIYAASRLHRGVPSRFSGSGSGTEFTLTISSLQPEDFATYYCLQHNSYPCSFGQGTKLEIKRTVAA[omitted - about 200 residues] |
